Over roughly 33,000 sequences, “E-score (-0.5 to 0.5)” has its median near -0.035; the highest 2% begin near 0.35. Some of the results follow.
biological target: T1, Pdr3 (UniProt P33200); test: PBM E-score (8-mer binding enrichment) (E-score (-0.5 to 0.5)); higher = stronger / more preferred TF binding; most listed sequences are background and not binding sites; conditions: protein concentration: 200 nM; construct: GST-full length
T1 sequence: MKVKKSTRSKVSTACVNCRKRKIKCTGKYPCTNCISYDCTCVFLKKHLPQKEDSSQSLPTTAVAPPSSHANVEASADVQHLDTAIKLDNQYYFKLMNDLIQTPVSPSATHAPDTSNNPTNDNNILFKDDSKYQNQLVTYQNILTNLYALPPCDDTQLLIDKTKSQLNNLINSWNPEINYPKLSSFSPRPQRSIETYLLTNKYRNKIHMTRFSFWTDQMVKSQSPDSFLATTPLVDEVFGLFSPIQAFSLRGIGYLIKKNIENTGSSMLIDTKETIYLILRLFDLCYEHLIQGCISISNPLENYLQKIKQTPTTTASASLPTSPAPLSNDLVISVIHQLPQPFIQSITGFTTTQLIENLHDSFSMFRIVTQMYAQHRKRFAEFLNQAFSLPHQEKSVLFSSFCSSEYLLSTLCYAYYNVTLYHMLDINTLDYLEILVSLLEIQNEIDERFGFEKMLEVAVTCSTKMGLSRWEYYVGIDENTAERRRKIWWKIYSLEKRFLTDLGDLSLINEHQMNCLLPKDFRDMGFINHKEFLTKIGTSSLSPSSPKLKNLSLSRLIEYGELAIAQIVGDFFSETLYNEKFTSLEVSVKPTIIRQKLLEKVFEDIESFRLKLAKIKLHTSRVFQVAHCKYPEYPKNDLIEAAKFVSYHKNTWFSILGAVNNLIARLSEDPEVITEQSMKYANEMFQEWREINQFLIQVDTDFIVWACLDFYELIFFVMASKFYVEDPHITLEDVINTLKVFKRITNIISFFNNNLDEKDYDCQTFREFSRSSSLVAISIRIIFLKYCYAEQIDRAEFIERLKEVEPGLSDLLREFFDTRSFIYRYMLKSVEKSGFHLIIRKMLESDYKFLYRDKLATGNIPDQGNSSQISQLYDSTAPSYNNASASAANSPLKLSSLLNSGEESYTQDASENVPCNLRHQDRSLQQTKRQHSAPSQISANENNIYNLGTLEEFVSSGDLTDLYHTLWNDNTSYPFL
In short: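 PURExpress in vitro transcription/translation supplied GST-tagged yeast transcription factors, either full-length or DNA-binding domain. Applied at about 100-200 nM to universal all-10-mer Agilent arrays double-stranded by primer extension, the bound protein was detected with fluorescent anti-GST. E-scores, modified Wilcoxon-Mann-Whitney statistics, were given by the Universal PBM Analysis Suite to ungapped eight-base words pooled with their reverse complements after masliner normalisation.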

Sequence	PBM E-score
CCCAGTTA	-0.101
ACCGCCCG	0.227
CTGTATTA	-0.0708
AGTCTCAT	-0.152
CGTTGGTA	0.0736
GACTTTGA	-0.204
CCCAGTGA	-0.289
ATAATATC	0.0559
AAGTCGGG	0.0808
TATTAGCA	-0.0886
CCGTAGGC	0.0972
GACAGCCC	0.0115
ACATGCAC	-0.17
GGATAGTA	0.229
CTGATTAC	0.0274
GTCACCGA	-0.0164
CTCCCCAA	-0.0194
AATTATTA	0.109
CTCCTCAA	-0.152
CGCTAGCC	-0.0348
GTTCCCAA	-0.0438
CCGATATA	0.117
ACGTCTAA	-0.159
CCTTTTCG	-0.0249
ATCTAAAG	-0.0798

Sequence	PBM E-score
CCGTTCAG	0.246
AGTTGCCG	0.196
CTTAGGCC	-0.139
CACGGTAA	0.0607
GGTCTAGA	-0.229
CATTACGG	0.0441
GCGCATAC	0.0925
CGCAACAC	0.0854
GCGCAACC	0.105
TAACGCAA	-0.0826
CCGCGTAG	0.167
GCTAAGCC	-0.0307
GTGCCATA	-0.257
GATGATGC	-0.119
CCGTCCAG	0.13
AAGAGTGG	-0.0761
GATCCCCC	-0.0962
GGAACCAA	0.285
GGATACTA	0.184
ACACAGGC	-0.124
GAACGTTA	-0.0724
GCGAGGAC	-0.162
CGACGGAA	0.439
GTCACAAC	-0.0622
AGTTCATA	0.00136

Sequence	PBM E-score
CTTGCTTC	-0.209
AAGCACCG	-0.0946
ATAGGGAT	-0.0476
CACTGGAC	0.026
GCGCCTGA	0.0747
AACGCGCG	0.243
CTCCGGAC	0.382
ACCGAGGC	-0.103
GACGGTCA	-0.172
GGTCTCGA	0.0878
ATGGAAAT	0.139
GGCAGCGA	-0.0426
GGGATACA	0.13
CCCCTAGA	-0.274
AGAAATCA	0.0654
CCACACAC	0.127
CGAGCAAA	0.00301
AAACCGCG	0.352
CCGAGATA	0.241
GGCCAGAA	0.104
CGCTTCGA	0.121
CAGACGAA	0.199
ACAACAAA	-0.0617
CCTCGGCA	0.238
CTCTGGAA	-0.135

Sequence	PBM E-score
ACTACTTA	-0.139
TCCCGGGA	0.485
CAACGGCA	0.0569
GGCAGTTA	-0.172
GATCGCAA	0.0222
GCCACGTA	-0.208
GGGAAATA	0.0401
CTATCTGC	-0.0009
CCCGCAGC	0.199
GACAGATA	0.111
GTCATTAA	-0.00633
CAGCTACG	-0.159
CATGCTTC	0.0358
CGCGGTCC	0.384
AAATGAAC	-0.143
GTTGGTTA	-0.135
AGTCTTAT	-0.0984
AGTTTACG	-0.0637
CTACGCAA	-0.301
CCTAGCAG	-0.186
TAGAAAAA	-0.152
AACTATGA	-0.12
GAACGTCC	0.135
CCATCGAC	-0.0202
ATGGTAAC	-0.0555

Sequence	PBM E-score
AGGATAAC	-0.212
ATCGATAC	-0.0585
AGGCCATA	-0.0791
ACTTAGTG	-0.161
AGTGATGG	-0.148
CACCTGGG	-0.221
AGCCACGA	0.0342
GTCTGCAA	-0.211
AGGGGATC	-0.0528
ATTGTCAG	-0.0506
AGCGACCC	0.161
AGATAAGG	-0.11
AGGTATAT	-0.152
ACAAGCCT	-0.228
TAGTGACA	-0.049
GGTAGCTA	-0.256
GAGAGACA	-0.179
CGTAATCC	0.148
ACTGTACC	-0.0171
AGCCGCAG	-0.0155
AAGCATTC	-0.125
ATTCCGAG	0.449
CGGGGACC	0.291
CTAAGGAC	-0.108
TTAAGTAA	-0.0351

Sequence	PBM E-score
ATTTATGC	-0.111
GACAAAAC	0.102
ACGCTTAG	-0.289
AGACTACA	-0.17
AATCGTCT	-0.127
CAGGTTCG	0.0766
AGTGTATG	-0.0614
AGGCGTCA	-0.248
CTAAGGTA	-0.0153
ACTTGTCC	0.136
ATTAGCGA	-0.019
ATTACATC	0.0367
CGGAGGCC	0.233
CACTGGCA	-0.0479
CCAGCTCG	-0.00527
TCATACAA	0.00912
ATATTCTG	-0.0624
CTATTGAA	-0.0299
AATACGTC	0.19
CTTACGCA	-0.246
CACGAAGA	-0.0569
ATGTCATC	0.0018
CAACAGCC	-0.0211
CCGGTACA	0.217
AGTGCCAG	-0.125

Sequence	PBM E-score
ACGTAGTA	-0.0216
ACGGGCGA	0.117
ACTGATGG	-0.188
ACAGGTGC	-0.166
ATCTTCAA	-0.112
AATATGAG	-0.1
AAGGAATG	0.126
GACGAATA	0.164
CGTACAGA	-0.161
AGGGCATG	-0.169
AGCCTACA	-0.165
ACCGTGAA	0.162
GGGCCTGA	-0.139
CACTCGCC	0.0754
ACACGCTC	0.122
GGGGCGCA	-0.0944
ATCTAGCC	-0.0811
ACATTGAA	-0.0293
CAGACTCG	-0.18
ACCTCAGC	-0.0623
CTTGCCGA	-0.0614
ATTAGCTC	-0.132
CCGCACCG	0.255
ATAACCTA	-0.162
ACGGATAA	0.375

Sequence	PBM E-score
CCACTTCC	0.136
AGTTTGAC	-0.0271
ATCAAGAC	-0.0503
GAAACACA	0.019
GACCCATC	0.138
CGCGGAAA	0.476
CAGCGACA	-0.199
CTGCTGCA	0.0101
CGCAGAAC	0.112
CATTTCGG	0.049
TCCTCGCA	-0.0258
CAAAGATG	0.016
CCATCCTC	0.111
AGTCCTGG	-0.288
AACTTTGA	-0.052
AGGAAAGA	-0.167
ACCCGTCG	0.186
CGCATCTC	0.0914
AGCACTCG	0.11
ACAGGTTG	-0.234
CCGTTTCA	0.199
GATTGGAA	0.0613
AAGTCATA	-0.0502
GATACTAA	0.197
GTCTCACA	0.00648

Sequence	PBM E-score
AGAGGGGA	-0.0845
AACCGGCG	0.306
GCAACCGC	0.0454
ATGGAAAG	0.0226
ACGCAAGA	0.0149
CTCTACGA	-0.266
TACATAGA	-0.116
AGCCTCCG	0.239
CCACGCTA	-0.156
CAGTGTCA	-0.0376
ACGATTCA	-0.116
AGGGTAAT	0.111
GGCCGACC	0.184
TATGCAAA	-0.342
AAATGCTA	-0.0642
AGAATATA	-0.229
AACGGGCA	-0.0251
AATGCATC	-0.149
TCCTCAAA	-0.253

From the supplement of paper PMC3334620
